# Experimental data as given in PubChem BioAssay AID1814 (Broad Institute, 2009).
# About 22,000 (7.3%) of roughly 300,000 compounds were called active. The shares of active, inactive and inconclusive entries below differ from those in the screen. Cut-off read from the data, not from the text of the source: active = activity score below about -60%; inconclusive = mostly about -28% to -61%; inactive = positive scores.
# Assay: Activators via SNCA 5'UTR binding, MLPCN (AID 1814)
# Conditions: alpha-synuclein 5'UTR reporter, activators screen; active compounds read low; tested at 7.5 µM
row,SMILES,activity score
1,Oc1[nH]c(N=C2N=c3ccccc3=N2)c2ccccc12,inconclusive: -59.8%
2,CC(=O)c1ccc(N2CCN(C(=O)c3cc(-c4ccc5c(c4)OCO5)nc4ccccc34)CC2)cc1,inconclusive: -44%
3,NC(N)=NC(=O)c1nc(Cl)c(N)nc1N,inconclusive: -37.2%
4,Cc1cccc(N2CN=c3s/c(=C\c4ccncc4)c(=O)n3C2)c1,inconclusive: -52.3%
5,CCOC(=O)C(CC)(CC)C(=O)/C=C/c1ccc(Br)cc1,active: -92.5%
6,COc1ccc2c(c1)O/C(=C\c1ccco1)C2=O,active: -119%
7,CCC(C)(C)NC(=O)C(c1ccncc1)N(C(=O)c1sc(C)nc1C)c1ccc(F)cc1 (centres undefined),inconclusive: -37.4%
8,CC1=C/C(=C(/c2cc(C)c(O)c(Br)c2)c2ccccc2S(=O)(=O)O)C=C(Br)C1=O,inactive: 61.1%
9,COc1cccc(C2Nc3ccccc3C(=O)N2Cc2ccccc2)c1 (centres undefined),inactive: 79.3%
10,O=C(Nc1ccccc1)N(O)c1ccc(Cl)cc1,active: -122%
11,C/C(=N/NC(=O)c1ccc(Br)o1)c1ccc(C)o1,inconclusive: -44.7%
12,O=c1cc(-c2cccc(F)c2)[nH]c2ccccc12,inactive: 86.6%
13,COc1ccc(C(=O)c2c(C(F)(F)F)oc3c2C(=O)c2ccccc2C3=O)cc1OC,inactive: 111%
14,O=C(CSc1ncccn1)N/N=C/c1ccc2c(c1)OCO2,inconclusive: -42.2%
15,Cc1cc(=O)[nH]c(N=N/C(=N/Nc2ccccc2C)c2ccccc2)n1,inactive: 81.6%
16,COc1cccc(/C=N/Nc2ncnc(Cl)c2N)c1O,inactive: 88.9%
17,CN(C)c1nc(-c2ccccn2)nnc1-c1ccccc1,inactive: 79.3%
18,COCC1CCCCN1Cc1cn(-c2ccccc2)nc1-c1ccc2c(c1)OCO2 (centres undefined),inconclusive: -35.3%
19,O=C(Nc1ccc2c(c1)OCCO2)c1ccc(Cl)c(S(=O)(=O)N2CCCCC2)c1,inconclusive: -59.8%
20,Nc1cccc(CCc2nc3cc4ccccc4cc3[nH]2)c1,inconclusive: -48%
21,O=C1N/C(=C/c2ccc(N3CCCC3)cc2)C(=O)N1c1ccccc1,inconclusive: -59.2%
22,COCCOC(=O)c1[nH]c2c(c1C)C(=O)CC(c1ccccc1)C2 (centres undefined),inactive: 77.7%
23,Cc1cccc(C)c1NS(=O)(=O)c1ccc(-c2cnc(C3CC3)o2)cc1,inactive: 103%
24,COCCNc1ccnc2c(Cl)cccc12,inconclusive: -51.5%

row,SMILES,activity score
1,COC(=O)C1=C(NC(=O)c2ccc(C)cc2)CCS1,inconclusive: -53.3%
2,O=C(O)c1ccccc1-c1ccc(/C=C2\SC(=O)N(c3ccccc3)C2=O)o1,active: -72.2%
3,CCOc1ccc(N2Cc3ncccc3C2=O)cc1,active: -103%
4,O=C(CCC(=O)n1ncc2ccccc21)NCc1ccccc1Cl,inconclusive: -57.8%
5,COc1cccc(N2CCN(C(=O)c3ccc(CS(=O)c4ccccc4Cl)o3)CC2)c1 (centres undefined),inactive: 110%
6,O=C(c1cccs1)n1nc(-c2ccc(Cl)cc2)nc1NCc1ccco1,inconclusive: -49.8%
7,Cc1cccc(CSc2nnc(-c3cnccn3)n2C)c1,inconclusive: -54%
8,O=C(CCCN1C(=O)/C(=C/c2ccc3c(c2)OCO3)SC1=S)Nc1ccc(C(=O)O)cc1,inactive: 102%
9,Oc1cccc(/C=N/Nc2ccc(Cl)nn2)c1,active: -171%
10,COc1ccc(Nc2nnc(C)c3ccccc23)cc1,active: -67.1%
11,COc1ccc(-c2noc(-c3cccs3)n2)cc1OC,active: -174%
12,O=C(Nc1ccccc1)N1CCCC(c2nc(-c3cccs3)no2)C1 (centres undefined),inconclusive: -56.4%
13,CCCC(C)NC(=O)c1sc2nc3n(c(=O)c2c1C)CCC3 (centres undefined),inconclusive: -46.3%
14,Cc1nc(CNC(=O)c2cc(COc3c(F)cccc3F)on2)cs1,inactive: 41.5%
15,O=C(c1cc2cc(C(F)(F)F)ccc2s1)N1CCOCC1,inconclusive: -48.3%
16,CCOC(=O)Nc1ccc2c(c1)N(C(=O)CCN1CCOCC1)c1ccccc1S2=O (centres undefined),inconclusive: -53.4%
17,COc1cc(/C=N/Nc2ccc3ccccc3c2)ccc1OC(=O)c1ccco1,active: -76.2%
18,Nc1ccc(C(=O)Nc2ccc(NC(=O)c3ccco3)c(O)c2)cc1,active: -81.6%
19,O=C(/C(Cl)=C/Nc1ccc(Br)cn1)C(F)(F)F,inconclusive: -55.3%
20,CC(=O)N(Cc1ccc(F)cc1)C1=C(NCc2ccccc2)C(=O)c2ccccc2C1=O,inactive: 91.7%
21,CSc1cccc(NC(=O)c2ccccn2)c1,active: -103%
22,O=C(Nc1cccc(NC(=O)c2ccco2)c1)c1ccc2c(c1)OCCO2,inconclusive: -51.9%
23,Cc1cccc(-n2ncc3c(N(C)C4CCCCC4)ncnc32)c1,inactive: 66%
24,COC1(OC)C(/C=C/c2ccc(Cl)cc2)C(C#N)(C#N)C1(OC)OC (centres undefined),inconclusive: -51%

row,SMILES,activity score
1,CN(C)S(=O)(=O)c1ccc(N2C(=O)CC2(/C=C/c2ccccc2)C(=O)NC2CCCC2)cc1 (centres undefined),inactive: 34.9%
2,O=C(/C=C/c1ccco1)NC(=S)Nc1ccccc1O,active: -121%
3,Cc1cc(C(=O)N/N=C/c2ccc([N+](=O)[O-])s2)n[nH]1,inactive: 79.3%
4,CCC1=Nc2cc(C(=O)NCc3ccco3)ccc2Sc2ccc(C)cc21,inactive: 104%
5,COc1ccccc1/C=C1\CCC(C2CCCC2)C1=O (centres undefined),inconclusive: -51.8%
6,COc1cc(NC(=O)n2ncc3cc(Cl)ccc32)cc(OC)c1,active: -186%
7,CCOC(=O)c1c(C(F)(F)F)cc(-c2ccc(F)cc2)nc1C,inconclusive: -60.4%
8,CCCCCC(=O)N/N=C(\C)c1ccccn1,inactive: 66.6%
9,CC(=O)N1CCc2c(sc(NC(=O)c3ccc4c(c3)OCCO4)c2C#N)C1,inconclusive: -56.3%
10,O=c1c2ccccc2nc(SCCN2CCCCC2)n1CCc1ccccc1,inconclusive: -50.3%
11,C/C(=N/NC(=O)c1ccccc1O)c1ccc(N2C(=O)C3CCCCC3C2=O)cc1 (centres undefined),inconclusive: -38.3%
12,Cc1nnc2sc(SCc3ccccc3)nn2c1=O,inconclusive: -36.9%
13,N#Cc1c(NC(=S)NC(=O)C2CCCC2)sc2c1CCCCC2,inconclusive: -60.5%
14,c1cncc(-c2nc(NCCCN3CCOCC3)c3c4c(sc3n2)CCC4)c1,inconclusive: -58.1%
15,O=C(CNc1ccc(Br)cc1)c1ccccc1,inconclusive: -51.7%
16,CCCCOc1ccc(NC(=O)C(=O)NCCCn2ccnc2)cc1,inactive: 66.1%
17,O=[N+]([O-])c1ccccc1S(=O)(=O)Nc1cccc2cccnc12,inactive: 59.9%
18,COc1cccc(C(=O)N/N=C(/c2ccccc2)c2ccccn2)c1,inactive: 73%
19,CCC(C)NC(=O)c1ccccc1NS(=O)(=O)c1ccc(OC)c(OC)c1 (centres undefined),inconclusive: -33.3%
20,CCCC(C)C(=O)Nc1nc(C)c(-c2csc(Nc3cc(OC)ccc3OC)n2)s1 (centres undefined),inactive: 60.2%
21,COc1cccc(NC(=S)N2CCCC2)c1,inconclusive: -49.7%
22,COc1ccc(/C=N/NC(=O)c2nc(-c3ccccc3)n(-c3ccccc3)n2)c(O)c1,inactive: 87.1%
23,O=C(NC1CCCC1)C(c1ccncc1)N(Cc1ccccc1)C(=O)c1ccc(-c2ccccc2)[nH]1 (centres undefined),inconclusive: -40.2%
24,CC1CCCCN1C(=O)CSc1nnc(-c2c[nH]c3ccccc23)o1 (centres undefined),inconclusive: -52.8%

row,SMILES,activity score
1,CCOc1ccc(NC(=O)NC23CC4CC(CC(C4)C2)C3)cc1,inconclusive: -55%
2,COc1ccccc1-c1nnc2sc(-c3cc4ccccc4o3)nn12,inactive: 76.3%
3,CCN(CC)C(=O)c1cc2c(=O)c3cc(F)ccc3oc2nc1C,inconclusive: -48.5%
4,CC(C)CNC(=S)NC(=O)c1ccc(F)cc1,active: -150%
5,Cc1ccc(O)c(NC(=O)c2onc(C)c2Cl)c1,inconclusive: -56.2%
6,CN(Cc1ccccc1)c1ncnc2c1cnn2-c1ccccc1,active: -169%
7,O=C(NN1C(=O)c2ccccc2NC1c1ccco1)c1ccc(Br)cc1 (centres undefined),inconclusive: -60.3%
8,O=C(Cc1csc(Nc2nc(=S)[nH]c3ccccc23)n1)NCCCN1CCN(c2ccccc2F)CC1,inactive: 91.5%
9,CC(=O)N(/N=C/c1ccc([N+](=O)[O-])o1)c1nc2ccccc2c(=O)n1-c1ccccc1,inconclusive: -60.7%
10,Cc1c(C(=O)OC(C)C)sc(NC(=O)c2cccnc2)c1C#N,active: -80.1%
11,CCN(Cc1ccccc1)c1ccc(/C=N/N=C(N)N)cc1,inactive: 93.9%
12,CC1(C)Cc2c(cnn2-c2ccc(F)cc2)C(NC(=O)CCN2CCCC2=O)C1 (centres undefined),inconclusive: -49.3%
13,Cc1ccc(S(=O)(=O)CCc2nnc(NC(=O)CCl)s2)cc1C,inconclusive: -55.1%
14,Cc1cc(C(=O)N/N=C/c2ccc[nH]2)n[nH]1,inconclusive: -56.7%
15,CCOC(=O)c1sc2cccc(F)c2c1N,inconclusive: -38.8%
16,O=C(COC(=O)c1ccc([N+](=O)[O-])s1)NC(c1ccccc1)c1ccccc1,inconclusive: -40.3%
17,COc1ccc(Br)cc1S(=O)(=O)Nc1cccc(C)n1,inconclusive: -46.8%
18,O=C(NCc1nc2ccccc2[nH]1)c1ccccc1F,inconclusive: -59.4%
19,O=C(O)c1cccc(-n2cc(-c3cccc(C(F)(F)F)c3)cn2)c1,active: -128%
20,Cc1ccc(-c2ccc(/C=N/NC(N)=S)o2)cc1,inconclusive: -45.4%
21,COc1ccc(-n2nc(N)c(C(N)=O)n2)cc1,active: -67.9%
22,O=C(CSc1nnc(NC(=O)c2cccc(F)c2)s1)NC1CC1,inconclusive: -39.6%
